# Experimental data published in the supplement of paper PMC11417369.
# This is one part of the list.
# Tested on: PfAP2-HC AP2 domain (GST-tagged)
# Experiment: gcPBM binding intensity (ln(normalized median fluorescence intensity)); higher = stronger DNA binding
# Procedure, shortened: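 Alexa488 anti-GST antibody, scanned at 488 nm, detected GST-tagged P. falciparum DNA-binding domains that had been expressed in E. coli and incubated for 1 h on an Agilent 4 × 180k array. The array carried primer-extended double-stranded 36-bp intergenic genomic probes and negative controls. Binding intensity is the highest Masliner-normalised natural-log median intensity across replicate spots of either orientation of each probe.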
row,Sequence,gcPBM binding intensity (ln)
1,TAATTTATAAATAATTGTACATAGTTTATTTAGATT [XGTACX_site4599],9.39
2,ATATATATAAAATAAAGTACCCGTAAAACCTATATG [XGTACX_site6937],9.74
3,AAAAAAAAAAAAAAAAAATAATAAAAAATAAAAAAA [GTGCAC_negctrl_site341],9.24
4,GACGACTATATTAATTGTACTCAATTTAAGCATAAT [XGTACX_site2750],9.58
5,TATGTTAATCCTATTTGTACATATAATCGAATTAAA [XGTACX_site7090],9.12
6,GAAAGGAAAAGTTGAACACACAAAGTAAACTATAAG [CACACA_site3535],9.82
7,TCATTCGAATAAATTGCACACATGACATCCGTTGTA [CACACA_site2587],9.77
8,AAAAAAAAAAAAAATATACACACTAATATATTTTTT [CACACA_site815],9.68
9,ATATATATATTAATTACACACAAAAAAAAAAAAAAA [CACACA_site1165],9.56
10,GTATAGAGAAAAAACTGTACTTTATATAAATATTTA [XGTACX_site3972],9.52
11,TATATACAGATATATACACACATATTTATATTTTAT [CACACA_site7734],9.92
12,TATTAATAATATAATAGTACTTTCACTGTAAATTTA [XGTACX_site6419],9.32
13,TATCCTACATTAACAAGTACAAAGAGATCCTACGTA [XGTACX_site4252],9.45
14,AAGAATATATAGGACACACATACAATAATAAATATA [CACACA_site4119],10.3
15,AACGCCACTTCAATGGCACACACCAATTATTTTTCA [CACACA_site1026],9.88
16,TTTCTCCATATTAAAGTGCATTAATAACAAAAATAA [GTGCAC_site9934],9.37
17,CAAGAACAAAAAATATGTACATATAATTATATATAT [XGTACX_site2082],9.78
18,CATATCTCTTATTAATGTACATTTTTAAAAGTAAAT [XGTACX_site2847],9.55
19,CTTTTTTTTATGAACAGTACAGAAATATATATATAC [XGTACX_site5613],9.44

row,Sequence,gcPBM binding intensity (ln)
1,TTTATATAATGGAAAAGTACTCAGGAAATTTATACA [XGTACX_site3635],9.53
2,TTGTTCCAATAAAATCGTACAATTAAACAACCAAAC [XGTACX_site5759],9.74
3,TTTTTTTCTATAATACACCAGAAAAAAAAATTAAAA [TGCATGCA_negctrl_site257],9.25
4,AGATTGAAATATAGTTGTACAAATATTTTAAAACAT [XGTACX_site3026],9.81
5,CAATCAACAAAACATACACACACATATATATATATA [CACACA_site8979],10.3
6,TTAAAATTAAAAATAGGTACACATATGAACAAGGAC [XGTACX_site1180],10.1
7,TTATATGATATATGACGTACATATTAATAACATCTA [XGTACX_site6716],9.51
8,TGTAATATTTTATAAAGTACATTATAATATAATTCA [XGTACX_site2961],9.39
9,TATAAAGCAACTGAAACACACAAATTTTTTTTTTTT [CACACA_site3218],9.91
10,ACTATTTTCTTCAAAACATGCACCACATAAACATAA [TGCATGCA_site200],9.58
11,ATTATTTATTTATGTGTGCGCATGTGTGTAAATATT,10.3
12,TTAAACATATATTAAGCACACACAAACAAAAAAACA [CACACA_site8816],10.2
13,AACATATTTTTTTGTTGTACTTACAATTATAAGCAT [XGTACX_site3056],9.58
14,TATACCAAATATATGGGTACACAAATATGTTTATTC [XGTACX_site8932],9.61
15,TAATTAATCGATTTACGCACATGAACAAAAGCACAT [CACACA_negctrl_site1287],9.77
16,AGAAAAAAAAAAAATGCACACATTTTCATTGTCAGT [CACACA_site1935],9.7
17,ATATATATATATATGTGTACATATTTTTTTTTTTTT [XGTACX_site3425],9.87
18,AAAAAACACAGACATACACACAAAAAGGTTATAAAT [CACACA_site4222],10.2
19,GTAAATATTAATAAAAGTACATATGTAGCATATGGA [XGTACX_site5219],9.89

row,Sequence,gcPBM binding intensity (ln)
1,CCTTTTTTATTTACAACACACGTAAAGGTTCAAATA [CACACA_site1741],9.52
2,ATTTTTTAAATGAGGCGTACACAAAAATATAATTAC [XGTACX_site7087],9.76
3,CTTAGATATAAAAATTGTACATACATATTTTTGACA [XGTACX_site2107],9.45
4,TATATATATATATATACACACACACTAATAAAAAAA [CACACA_site8426],11
5,TTTTTTTCGTAAAAAAAAATAATTATTAAATGAAGG [TGCATGCA_negctrl_site212],9.26
6,TATTATAAAATATACACATGCAAAAACAAAATTTAC [TGCATGCA_site1051],9.75
7,TATTTTTAATAAAAACGTACGGAATACAAAAAAAAT [XGTACX_site3477],9.77
8,TATATACATTGGTATACATGCATTCTCTTTCATACA [TGCATGCA_site734],9.64
9,TAAAATTTATAAACTACACACATATAAATAGTAATA [CACACA_site7708],9.98
10,TAAACACCCATATAAACACACATATAAACACCCATA [CACACA_site5382],10.3
11,TTTATTTATTTTTAACGTACGCACACATATAAATAT [XGTACX_site4042],10.5
12,CACATACACATACAAACACACATTATATATATATAT [CACACA_site8460],10.4
13,CATCCATTATTAATATGTACATATGTATATATATTA [XGTACX_site1318],9.68
14,GAAAAAAAAAAAAGGGGTACATTTATTTTATCAATA [XGTACX_site8331],9.35
15,TTTTTTTTTTTTTTTTTTTTTTTCTTTATTTTTTTT [CACACA_negctrl_site703],8.77
16,AAAATTTAAAAATGGACACACACAAAAAATAATACT [CACACA_site7972],10.3
17,AACTTTTTACAAACAGGTACGCATATATATATATAT [XGTACX_site5081],9.84
18,AATAATTATTTGTATAGTACAATATACAAAAGATGA [XGTACX_site4312],9.72
19,ATATATATATGTGCCAGTACACATGTATACATTATA [XGTACX_site3899],9.79
